Values joined by “and” are separate entries in the source; they are usually repeats but may differ in a detail not shown here. Identical values can stand only once. The inconclusive results got no clear call from the source; some entries with a clear call stand among them for comparison. For some of these results: Where the call is inconclusive, the potency comes from a doubtful curve fit. More than one record can exist for a structure, and the calls need not agree. Active and inactive are the calls of the source. Unless noted, calls come from the whole dose curve.
Assays:
[1] = qHTS assay to identify small molecule antagonists of the peroxisome proliferator-activated receptor gamma (PPARg) signaling pathway - cell viability counter screen (AID 743194; active = well fitted curve in the direction sought with a large enough effect in the repeat runs; inconclusive = weak or mixed curves; inactive = no such curve, though single readings can be large; an effect the other way counts as inactive or inconclusive; note: % is set by controls: 0 for no effect and ±100 for the full control effect; nearly all actives have a fitted effect of over 55% in size); conditions: PPARg-bla HEK293H viability, CellTiter-Glo luminescence, 17 h; Potency: co-treated with 50 nM rosiglitazone unless noted; activity change, negative = cytotoxicity: at 62.6 µM (top of the series), co-treated with 50 nM rosiglitazone unless noted
Method in brief: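 PPARg-UAS-bla HEK293H cells were plated, rested 5 h at 37 C, then treated with compounds plus rosiglitazone (50 nM final) for 17 h at 37 C; viability was then read by CellTiter-Glo luminescence after 30 min at room temperature.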

[2] = qHTS assay for small molecule agonists of the antioxidant response element (ARE) signaling pathway (AID 743202; active = well fitted activation curve with a large enough effect in the signal ratio in the repeat runs, not every such curve was filed as active; inconclusive = weak or mixed curves, or effect the other way; inactive = no such curve, though single readings can be large or run the other way; the % refers to the signal ratio; note: potency is the fitted concentration of half-maximal effect; for activation: % is set by controls: 0 for no effect and ±100 for the full control effect); conditions: HepG2 ARE-bla reporter, beta-lactamase FRET, 16 h; activation: at 73.3 µM (top of the series) unless noted
Method in brief: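 Following a 16 h, 37 C exposure of reporter HepG2 cells (ARE-driven beta-lactamase, 2,000 cells/well) to compounds, FRET substrate was applied for 2 h at room temperature and fluorescence intensity recorded.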

[3] = qHTS assay to identify small molecule agonists of the farnesoid-X-receptor (FXR) signaling pathway - cell viability counter screen (AID 743218; active = well fitted curve in the direction sought with a large enough effect in the repeat runs; inconclusive = weak or mixed curves; inactive = no such curve, though single readings can be large; an effect the other way counts as inactive or inconclusive; note: nearly all actives have a fitted effect of over 45% in size; note: potency is the fitted concentration of half-maximal effect); conditions: FXR-bla HEK293T viability, CellTiter-Glo luminescence, 16 h; viability change, negative = cytotoxic: at 62.6 µM (top of the series) unless noted
Method in brief: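 Same-well cytotoxicity check on FXR-UAS-bla HEK 293T cells: 5 h attachment, 16 h compound at 37 C, CellTiter-Glo luminescence read at room temperature after 30 min.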

[4] = qHTS assay to identify small molecule antagonists of the farnesoid-X-receptor (FXR) signaling pathway - cell viability counter screen (AID 743221; active = well fitted cell-killing curve with a large enough effect in the repeat runs, not every such curve was filed as active; inconclusive = weak or mixed curves, or effect the other way; inactive = no such curve, though single readings can be large or run the other way; note: nearly all actives have a fitted effect of over 50% in size; note: potency is the fitted concentration of half-maximal effect); conditions: FXR-bla HEK293T viability, CellTiter-Glo luminescence, 16 h; activity change, negative = cytotoxicity: at 62.6 µM (top of the series) unless noted
Method in brief: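 Compound effects on cell number were measured as CellTiter-Glo luminescence in HEK 293T cells expressing FXR-UAS-bla, after 16 h at 37 C with 50 uM CDCA (final).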

[5] = target: Vitamin D3 receptor (Homo sapiens) (UniProt P11473); experiment: qHTS assay to identify small molecule antagonists of the vitamin D receptor (VDR) signaling pathway (AID 743223; active = well fitted inhibition curve with a large enough effect in the signal ratio in the repeat runs, not every such curve was filed as active; inconclusive = weak or mixed curves, or effect the other way; inactive = no such curve, though single readings can be large or run the other way; the % refers to the signal ratio; note: % is set by controls: 0 for no effect and ±100 for the full control effect); conditions: VDR-UAS-bla HEK293T, beta-lactamase FRET ratio, 16 h; activity change, negative = inhibition: at 61 µM (top of the series) unless noted
Method in brief: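 Beta-lactamase activity in VDR-bla cells is measured by FRET substrate fluorescence (2 h, room temperature) after cells spend 16 h at 37C with test compound and 3 nM final 1alpha,25-dihydroxyvitamin D3.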

[6] = qHTS assay to identify small molecule agonists of the NFkB signaling pathway - cell viability counter screen (AID 1159515); note: potency is the fitted concentration of half-maximal effect; nearly all actives have a fitted effect of over 55% in size
Method in brief: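 Counter screen run alongside the NFkB-bla agonist assay: ME-180 reporter cells exposed to compounds for 5 hr, then lysed with CellTiter-Glo in the same wells. Luminescence, read after 30 min, reflects viable cells.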

[7] = qHTS assay for small molecule agonists of the antioxidant response element (ARE) signaling pathway - cell viability counter screen (AID 743203); note: potency is the fitted concentration of half-maximal effect; nearly all actives have a fitted effect of over 55% in size
Method in brief: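 Parallel cytotoxicity read-out for the ARE-bla screen: HepG2 reporter cells, 16 hrs with compounds, then CellTiter-Glo luminescence.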

[8] = qHTS assay for small molecule activators of the heat shock response signaling pathway - cell viability counter screen (AID 743209; active = well fitted curve in the direction sought with a large enough effect in the repeat runs; inconclusive = weak or mixed curves; inactive = no such curve, though single readings can be large; an effect the other way counts as inactive or inconclusive; note: potency is the fitted concentration of half-maximal effect; nearly all actives have a fitted effect of over 50% in size); conditions: HSE-bla HeLa viability, CellTiter-Glo luminescence, 5 h; activity change, negative = cytotoxicity: at 62.6 µM (top of the series) unless noted
Method in brief: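 To flag cytotoxic compounds, HSE-bla HeLa cells plated at 1500 cells/well were dosed for 5 h at 37 C, followed by the reporter FRET read and then CellTiter-Glo, with luminescence recorded 30 min after reagent addition.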

[9] = qHTS assay for small molecule activators of the heat shock response signaling pathway (AID 743210; active = well fitted activation curve with a large enough effect in the signal ratio in the repeat runs, with a control signal flat, not every such curve was filed as active; inconclusive = weak or mixed curves; the % refers to the signal ratio; note: potency is the fitted concentration of half-maximal effect); conditions: HeLa HSE-bla reporter, beta-lactamase ratio, 5 h; activation: at 62.6 µM (top of the series)
Method in brief: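 Heat shock element–beta-lactamase HeLa reporter cells; qHTS with compounds for 5 h at 37 C; detection by FRET substrate fluorescence after 2.5 h at RT.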

[10] = target: Peroxisome proliferator-activated receptor delta (Homo sapiens) (UniProt Q03181); experiment: qHTS assay to identify small molecule agonists of the peroxisome proliferator-activated receptor delta (PPARd) signaling pathway (AID 743212); conditions: HEK293H PPARd-UAS-bla, beta-lactamase FRET ratio, 17 h; activation: at 62.6 µM (top of the series) unless noted;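 note: HEK293H cells with PPARd UAS beta-lactamase reporter GeneBLAzer system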; note: potency is the fitted concentration of half-maximal effect
Method in brief: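 Beta-lactamase reporter read by fluorescence (LiveBLAzer B/G FRET, 2 h, room temperature). Test agents, in DMSO, incubated at 37 C with PPARd-bla HEK293H cells.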

[11] = target: Peroxisome proliferator-activated receptor delta (Homo sapiens) (UniProt Q03181); experiment: qHTS assay to identify small molecule antagonists of the peroxisome proliferator-activated receptor delta (PPARd) signaling pathway (AID 743215; active = well fitted inhibition curve with a large enough effect in the signal ratio in the repeat runs, not every such curve was filed as active; inconclusive = weak or mixed curves, or effect the other way; inactive = no such curve, though single readings can be large or run the other way; the % refers to the signal ratio;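 note: cells stimulated with agonist L165041 at 300 nM final during compound exposure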; note: potency is the fitted concentration of half-maximal effect); conditions: HEK293H PPARd-UAS-bla, beta-lactamase FRET ratio, antagonist, 17 h; ratio activity, negative = inhibition: at 62 µM (top of the series) unless noted
Method in brief: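 Screen format: qHTS, antagonist mode. HEK293H PPARd-bla cells received compound and 300 nM L165041 (final), 17 h, 37 C. Beta-lactamase detected via FRET substrate fluorescence, 2 h, room temperature.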

[12] = qHTS assay to identify small molecule agonists of the vitamin D receptor (VDR) signaling pathway - cell viability counter screen (AID 743224; active = well fitted curve in the direction sought with a large enough effect in the repeat runs; inconclusive = weak or mixed curves; inactive = no such curve, though single readings can be large; an effect the other way counts as inactive or inconclusive; note: potency is the fitted concentration of half-maximal effect; nearly all actives have a fitted effect of over 50% in size)
Method in brief: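 Counter screen for cytotoxicity: VDR-bla cells at 2,000 cells/well, 16 h compound exposure, then CellTiter-Glo luminescence after the beta-lactamase measurement.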

[13] = qHTS assay to identify small molecule antagonists of the vitamin D receptor (VDR) signaling pathway - cell viability counter screen (AID 743225; active = well fitted curve in the direction sought with a large enough effect in the repeat runs; inconclusive = weak or mixed curves; inactive = no such curve, though single readings can be large; an effect the other way counts as inactive or inconclusive; note: potency is the fitted concentration of half-maximal effect; nearly all actives have a fitted effect of over 50% in size); conditions: VDR-bla HEK293T viability, CellTiter-Glo luminescence, 16 h; viability change, negative = cytotoxic: at 61 µM (top of the series) unless noted
Method in brief: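 In this counter screen, VDR-bla HEK 293T cells receive test compound plus 3 nM final calcitriol for 16 h at 37C. Room-temperature steps of 2 h with the beta-lactamase substrate, then 30 min with CellTiter-Glo, precede the luminescence read.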

[14] = qHTS assay to identify small molecule antagonists of the peroxisome proliferator-activated receptor delta (PPARd) signaling pathway - cell viability counter screen (AID 743213; active = well fitted curve in the direction sought with a large enough effect in the repeat runs; inconclusive = weak or mixed curves; inactive = no such curve, though single readings can be large; an effect the other way counts as inactive or inconclusive); conditions: PPARd-bla HEK293H viability, CellTiter-Glo luminescence, 17 h; viability change, negative = cytotoxic: at 62 µM (top of the series) unless noted
Method in brief: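 PPARd-bla HEK293H cells (3000/well) got compound plus 300 nM L165041 agonist for 17 h at 37 C. Viability in the same wells came from CellTiter-Glo luminescence after 30 min at room temperature.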

[15] = target: Bile acid receptor (Homo sapiens) (UniProt Q96RI1); experiment: qHTS assay to identify small molecule antagonists of the farnesoid-X-receptor (FXR) signaling pathway (AID 743217; active = well fitted inhibition curve with a large enough effect in the signal ratio in the repeat runs, not every such curve was filed as active; inconclusive = weak or mixed curves, or effect the other way; inactive = no such curve, though single readings can be large or run the other way; the % refers to the signal ratio; note: % is set by controls: 0 for no effect and ±100 for the full control effect); conditions: HEK293T FXR-UAS-bla, beta-lactamase ratio, CDCA-stimulated, 16 h; activity change, negative = inhibition: at 62.6 µM (top of the series) unless noted
Method in brief: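 Quantitative HTS, beta-lactamase reporter format: FXR-UAS-bla HEK 293T cells co-treated 16 h at 37 °C with compounds and 50 uM final chenodeoxycholic acid, then read by B/G FRET fluorescence.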

[16] = target: Bile acid receptor (Homo sapiens) (UniProt Q96RI1); experiment: qHTS assay to identify small molecule agonists of the farnesoid-X-receptor (FXR) signaling pathway (AID 743220; active = well fitted activation curve with a large enough effect in the signal ratio in the repeat runs, not every such curve was filed as active; inconclusive = weak or mixed curves, or effect the other way; the % refers to the signal ratio; note: % is set by controls: 0 for no effect and ±100 for the full control effect); conditions: HEK293T FXR-UAS-bla, beta-lactamase FRET ratio, 16 h; activation: at 62.6 µM (top of the series) unless noted
Method in brief: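 FXR-UAS-bla HEK 293T cells carrying a UAS-driven beta-lactamase reporter were plated for 5 h at 37C/5% CO2, then exposed to DMSO-dissolved Tox21 10K compounds for 16 h at 37C. A LiveBLAzer B/G FRET substrate was loaded for 2 h at room temperature before fluorescence reading.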
Tags give direction and shape of the fitted curve or compound fluorescence and quenching.

Chain of UniProt Q03181 (Q03181 whole entry, looked up): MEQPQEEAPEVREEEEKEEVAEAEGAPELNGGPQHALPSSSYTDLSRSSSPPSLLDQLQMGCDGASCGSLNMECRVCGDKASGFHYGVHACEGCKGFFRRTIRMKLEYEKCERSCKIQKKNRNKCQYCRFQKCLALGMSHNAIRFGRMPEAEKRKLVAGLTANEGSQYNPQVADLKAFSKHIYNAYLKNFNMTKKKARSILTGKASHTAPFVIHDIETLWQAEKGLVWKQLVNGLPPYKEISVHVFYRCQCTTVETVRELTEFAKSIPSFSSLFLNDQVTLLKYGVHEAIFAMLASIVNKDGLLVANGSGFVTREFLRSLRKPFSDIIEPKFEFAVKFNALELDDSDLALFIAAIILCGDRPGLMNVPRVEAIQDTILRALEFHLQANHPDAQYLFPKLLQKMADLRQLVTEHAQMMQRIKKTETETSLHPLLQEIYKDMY
Chain of UniProt Q96RI1 (Q96RI1 whole entry, looked up): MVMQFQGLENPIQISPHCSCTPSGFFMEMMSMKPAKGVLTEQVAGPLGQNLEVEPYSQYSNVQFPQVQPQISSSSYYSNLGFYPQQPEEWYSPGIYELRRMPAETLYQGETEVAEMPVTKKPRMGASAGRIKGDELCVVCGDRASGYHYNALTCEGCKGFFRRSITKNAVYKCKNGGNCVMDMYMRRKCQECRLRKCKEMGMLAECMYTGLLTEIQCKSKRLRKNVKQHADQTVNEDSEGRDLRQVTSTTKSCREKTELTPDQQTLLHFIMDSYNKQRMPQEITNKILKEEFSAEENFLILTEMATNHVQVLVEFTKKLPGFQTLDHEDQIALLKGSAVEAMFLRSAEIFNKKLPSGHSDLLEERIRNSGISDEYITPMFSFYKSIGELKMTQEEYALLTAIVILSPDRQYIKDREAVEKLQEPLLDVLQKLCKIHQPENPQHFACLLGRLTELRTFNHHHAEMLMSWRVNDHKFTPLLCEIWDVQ
Chain of UniProt P11473 (P11473 whole entry, looked up): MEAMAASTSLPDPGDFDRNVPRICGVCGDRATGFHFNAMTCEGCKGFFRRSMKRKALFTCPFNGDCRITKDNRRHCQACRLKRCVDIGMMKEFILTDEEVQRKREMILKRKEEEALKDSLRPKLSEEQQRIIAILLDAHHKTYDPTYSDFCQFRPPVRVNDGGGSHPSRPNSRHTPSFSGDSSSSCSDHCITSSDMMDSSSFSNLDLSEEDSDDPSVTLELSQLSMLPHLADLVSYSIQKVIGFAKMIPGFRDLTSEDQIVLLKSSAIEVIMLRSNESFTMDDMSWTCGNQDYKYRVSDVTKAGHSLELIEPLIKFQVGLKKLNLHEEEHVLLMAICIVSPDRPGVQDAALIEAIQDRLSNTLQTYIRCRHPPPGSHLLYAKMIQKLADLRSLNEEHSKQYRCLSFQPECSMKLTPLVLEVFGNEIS

O=C(Nc1ccccc1)Nc1cnns1
inactive: Potency [1]
inconclusive: Potency [2] 21.7 µM | Potency [3] 17.4 µM [cytotoxic, partial curve, poor fit] | Potency [4] 19.5 µM [falling, full curve, poor fit] | activity change, negative = inhibition [5] -15.7% | Potency [6] 48.9 µM [rising, single point]

c1ccc2c(c1)sc1ccccc12
active: Potency [13] 19 µM
inconclusive: Potency [2] 23.7 µM [falling, partial curve, poor fit] | activation [2] -8.8% | Potency [7] 29.8 µM [cytotoxic, partial curve, poor fit] | Potency [8] 29.8 µM [cytotoxic, partial curve, poor fit] | Potency [9] 29.8 µM | Potency [11] 38.9 µM [activator, partial curve, poor fit] | Potency [4] 33.5 µM [falling, partial curve, poor fit] | activity change, negative = inhibition [5] 2.12% and -53.7% | Potency [12] 33.5 µM [cytotoxic, single point] | Potency [6] 0.338 µM [cytotoxic, single point]
inactive: Potency [10]

C=CC(=O)OCC(C)O (configuration not stated)
active: Potency [2] 8.91 µM
inconclusive: activation [10] 10.9% [at 81.1 µM] | Potency [14] 0.0899 µM [cytotoxic, full curve, poor fit] | ratio activity, negative = inhibition [11] 2.27% [at 80.4 µM] | viability change, negative = cytotoxic [3] -0.971% [at 81.1 µM] | activity change, negative = inhibition [5] 20% [at 78.8 µM] | Potency [6] 50.5 µM [rising, partial curve]
inactive: Potency [15] | Potency [16]

CO/N=C(/C(=O)OC)c1ccccc1COc1ccccc1C
inconclusive: Potency [10] 24.5 µM [rising, partial curve, poor fit] | Potency [11] 69.2 µM [rising, single point] | activity change, negative = inhibition [15] -45.9% | Potency [12] 12.3 µM [cytotoxic, full curve] | Potency [13] 21.9 µM [cytotoxic, partial curve, poor fit] | Potency [6] 13.8 µM [cytotoxic, partial curve, poor fit]
active: Potency [2] 19.3 µM

Clc1ccc(Cl)c(Cl)c1
inconclusive: activation [2] 26.5% and -16.2% | Potency [6] 0.0013 µM
inactive: Potency [4]

Source: PubChem BioAssay (Tox21)
